In PubChem BioAssay AID651820 (National Center for Advancing Translational Sciences (NCATS), 2012):
Out of some 340,000 compounds screened, about 12,000 (3.5%) were called active. Inconclusive means that the source gave no clear call. Such entries were picked first, then a sample of the others. Calls follow the shape of the dose curve; as a rule, active = well fitted inhibition curve with a large enough effect; inconclusive = small, poorly fitted or top-dose-only effect, or another doubt; inactive = no such curve, though single readings can be large or run the other way. No potency is given beside an inconclusive call; the fits are too rough.
% is scaled to controls: 0 for no effect and ±100 for the full control effect; potency is read from the fitted curve at half-maximal effect; tags tell the direction and shape of the fitted curve.

Test: qHTS Assay for Inhibitors of Hepatitis C Virus (HCV)
Settings: Huh7.5.1 HCVcc-Cre (HCVcc is cell-culture hepatitis C virus) infection, luciferase reporter, 44 h; activity change, negative = inhibition: at 41.8 µM (top of the series) unless noted
In short: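 Infectious HCV cell culture screen: compound-treated cells (1,000/well, pre-plated 4 h) are infected with HCVcc-Cre at roughly 0.5 moi and grown 44 h. Infection is quantified by luciferase signal after 15 min substrate incubation at room temperature.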
In the case of `O=C(C1CCN(S(=O)(=O)c2cccnc2)CC1)N1CCN(C2CCCC2)CC1`, the “activity change, negative = inhibition” value is reported as inactive: 1.76%. For `COCc1c(C(=O)Nc2nc(C)cs2)oc2ccccc12`, the Potency was inconclusive [inhibitor, full curve, poor fit]. In the case of `C=CCn1c(N)c(C(=O)Nc2ccccc2OC)sc1=S`, the Potency is reported as inconclusive [inhibitor, single point]. With `N#Cc1nc(COc2ccc(Cl)cc2)oc1N1CCCCCC1` the Potency was inconclusive [inhibitor, full curve]. For `Cc1ccccc1NS(=O)(=O)c1ccc(C(=O)NCC(C)(C)N2CCOCC2)cc1`, the Potency was inconclusive [inhibitor, full curve, poor fit]. For `CCc1ccccc1OCC(=O)Nc1ccc(N2CCCC2)cc1C`, the Potency was inconclusive [inhibitor, single point]. For `Cn1nnnc1SCC(=O)c1ccc2c(c1)OCCO2`, the Potency was inconclusive [inhibitor, partial curve, poor fit]. With `Cn1c(SCC(=O)NC(C)(C)C)nnc1-c1ccc(C(C)(C)C)cc1` the Potency was inconclusive [inhibitor, single point]. For `N/C(=N\OC(=O)c1cc(Br)ccc1Cl)c1ccccn1`, the Potency was inconclusive [inhibitor, single point]. With `CCOc1ccc(N2CC(C(=O)Nc3ccccc3N3CCCC3)CC2=O)cc1` (stereo not drawn) the Potency was inconclusive [inhibitor, partial curve]. With `COC(=O)c1ccccc1NC1=C/C(=N\S(=O)(=O)c2ccc(C(=O)O)cc2)c2ccccc2C1=O` the Potency was active: 10 µM. In the case of `COc1ccccc1N(C(=O)c1ccco1)C(C(=O)NC1CCCC1)c1cccs1` (stereo not drawn), the “activity change, negative = inhibition” value is reported as inactive: -10.2%. With `O=C(CNC(=O)c1ccc(Cl)cc1Cl)OCCOc1ccccc1F` the “activity change, negative = inhibition” value was inactive: -0.195%. In the case of `Cc1ccc(NC(=O)N2CCC(NC(=O)C(C)(C)C)CC2)cc1`, the “activity change, negative = inhibition” value is reported as inactive: 11.7%. For `Cc1ccc(OCC(=O)N/N=C/c2ccco2)cc1`, the “activity change, negative = inhibition” value was inactive: 5.05%. For `CC(C)(C)n1cc(C(=O)c2ccc3ccccc3c2O)cn1`, the “activity change, negative = inhibition” value was inactive: -27.8%. For `CCc1ccc(C(=O)Nc2ccc3c(c2)n(C)c(=O)n3C)cc1`, the “activity change, negative = inhibition” value was inactive: -13.3%. For `Cn1c(C(=O)N/N=C/c2ccccc2)cc2ccccc21`, the “activity change, negative = inhibition” value was inactive: 2.08%. For `N=c1c(C(=O)NCC2CCCO2)cc2c(=O)n3ccccc3nc2n1Cc1cccnc1` (stereo not drawn), the Potency was inconclusive [inhibitor, single point]. With `CCN(CC)CCCNC(=O)c1nn(-c2cccc(OC)c2)c(=O)c2ccccc12` the Potency was inconclusive [inhibitor, full curve, poor fit]. For `CCc1ccc(OCC(=O)NC(NC(=S)Nc2ccccc2OC)C(Cl)(Cl)Cl)cc1` (stereo not drawn), the Potency was inconclusive [inhibitor, single point]. With `Cc1ccc(S(=O)(=O)N2CCCNCC2)cc1` the “activity change, negative = inhibition” value was inactive: -8.65%. In the case of `c1ccc(Oc2cc(-n3cccn3)ncn2)cc1`, the “activity change, negative = inhibition” value is reported as inactive: 6.32%. With `CCC(=O)N1CCc2cc(Br)cc(S(=O)(=O)N(C)c3ccc(OC)cc3)c21` the Potency was inconclusive [inhibitor, single point]. For `C[C@H](CO)N1C[C@H](C)[C@@H](CN(C)C(=O)Nc2ccc3c(c2)OCO3)Oc2c(NC(=O)Nc3ccc4c(c3)OCO4)cccc2C1=O`, the Potency was inconclusive [inhibitor, full curve]. With `COc1ccccc1N1CCN(Cc2ccc(OC)c(OC)c2OC)CC1` the “activity change, negative = inhibition” value was inactive: -11.9%. For `CN(Cc1ccccc1)C(=O)COC(=O)c1ccc2c(c1)OCO2`, the Potency was inconclusive [inhibitor, single point]. For `c1csc(-c2nc3c4ccccc4c4ccccc4c3[nH]2)c1`, the Potency was active: 12.6 µM. With `COc1cc(C(=O)NCCOc2cc(C)ccc2C(C)C)cc(OC)c1OC` the Potency was active: 2.82 µM. With `O=C(Nc1ccc(Cl)cc1F)c1cccc2ccccc12` the “activity change, negative = inhibition” value was inactive: -19.9%. In the case of `COc1ccc(C(C)=O)cc1COC(=O)C(CO)NS(=O)(=O)c1ccc(Br)cc1` (stereo not drawn), the “activity change, negative = inhibition” value is reported as inactive: -0.626%. With `Cc1ccccc1-n1nc(C)c2cc(C(=O)NCc3cccnc3)sc21` the Potency was inconclusive [inhibitor, single point]. For `CC(C)c1ccc(OCC(=O)NC2CC(C)(C)NC(C)(C)C2)c(Br)c1`, the Potency was active: 11.2 µM. With `COc1ccc(C2CC(c3ccc4ccccc4c3OC(C)=O)=NN2C(C)=O)cc1` (stereo not drawn) the Potency was inconclusive [inhibitor, full curve]. For `Cc1ccc(C)c(NC(=S)NC(C)C(c2ccccc2)N2CCN(C)CC2)c1` (stereo not drawn), the Potency was inconclusive [inhibitor, single point]. With `C[C@@]12C(=O)Nc3ccc(F)cc3C(=O)N1[C@H]1c3cc(Cl)ccc3OC[C@@H]1[C@@H]2c1ccccc1` the Potency was inconclusive [inhibitor, single point]. In the case of `CC(=O)N(c1ccccc1)c1nc(/C=C/C(=O)Nc2c(C)cc(C)cc2C)cs1`, the Potency is reported as inconclusive [inhibitor, partial curve]. With `CCOC(=O)COn1c(-n2nc(C)cc2C)nc2ccccc2c1=O` the “activity change, negative = inhibition” value was inactive: 22.1%. With `CCCCCCNC1=NCCS1` the “activity change, negative = inhibition” value was inactive: 6.94%. With `Cc1cnc(NC(=O)c2ccc(F)c(S(=O)(=O)N3CCOCC3)c2)s1` the Potency was inconclusive [inhibitor, single point]. In the case of `CCN(CC(=O)NCc1ccc(F)cc1)CC(=O)NC1CCCC1`, the Potency is reported as active: 0.891 µM. In the case of `Cn1nc(CC(=O)NC2CCCCCCCCCCC2)c2ccccc2c1=O`, the Potency is reported as inconclusive [inhibitor, single point]. For `COC(=O)C(C)N1C(=O)S/C(=C/c2cc(C)n(-c3ccccn3)c2C)C1=O` (stereo not drawn), the Potency was inconclusive [inhibitor, partial curve]. For `CCc1ccc(OCC2c3cc(OC)c(OC)cc3CCN2C(=S)NC)cc1` (stereo not drawn), the Potency was inconclusive [inhibitor, single point]. In the case of `Clc1ccccc1CN1CCN(c2ccccc2)CC1`, the “activity change, negative = inhibition” value is reported as inactive: -8.71%. In the case of `O=C(CN1C(=O)NC2(CCCC2)C1=O)Nc1nc(-c2ccc(F)cc2)cs1`, the Potency is reported as active: 12.6 µM. With `O=C(CCC(=O)N1CCN(S(=O)(=O)c2ccc(Cl)cc2)CC1)NC1CCCc2ccccc21` (stereo not drawn) the Potency was inconclusive [inhibitor, single point]. With `CCn1c(=O)c(C(C)=O)nc2ccccc21` the “activity change, negative = inhibition” value was inactive: -1.93%. In the case of `O=C(Nc1nnc(-c2ccco2)o1)c1ccc(S(=O)(=O)N2CCCC2)cc1`, the “activity change, negative = inhibition” value is reported as inactive: 1.72%. With `COCCNc1nc(C(C)(C)C)nc2c1nnn2Cc1ccccc1Cl` the “activity change, negative = inhibition” value was inactive: 8.05%. With `O=C(CCc1ccccc1)NCc1ccc(F)cc1` the “activity change, negative = inhibition” value was inactive: 1.36%. For `CNCC(O)c1ccc(OC(=O)C(C)(C)C)c(OC(=O)C(C)(C)C)c1` (stereo not drawn), the Potency was inconclusive [inhibitor, full curve, poor fit]. In the case of `CCCN1CCc2cccc3c2[C@H]1Cc1ccc(O)c(O)c1-3`, the Potency is reported as inconclusive [inhibitor, partial curve]. With `CC(C)(C)C(=O)/C(=C/c1ccc(Cl)cc1)n1cncn1` the Potency was inconclusive [inhibitor, single point]. In the case of `CC(OC(=O)c1ccc2ncsc2c1)C(=O)NC1CCCCC1C` (stereo not drawn), the Potency is reported as inconclusive [inhibitor, single point]. In the case of `CCc1ccc2[nH]c3nc(SCC(=O)NCC4CCCO4)nnc3c2c1` (stereo not drawn), the Potency is reported as inconclusive [inhibitor, partial curve]. For `CCOCCOC(=O)c1[nH]c2c(c1C)C(=O)CC(c1ccc(N(C)C)cc1)C2` (stereo not drawn), the Potency was inconclusive [inhibitor, partial curve]. In the case of `COc1cccc(-n2c(C)nc3c(cnn3-c3ccc(Cl)cc3)c2=O)c1`, the Potency is reported as inconclusive [inhibitor, partial curve]. For `COc1cccc(/C=C2\Sc3ccc(C(=O)NCc4cccnc4)cc3N(C)C2=O)c1`, the Potency was inconclusive [inhibitor, partial curve]. In the case of `Cc1ccc(C(=O)Nc2ccc(N3CCCC3)cc2)c(C)c1`, the Potency is reported as inconclusive [inhibitor, partial curve]. In the case of `COc1cccc(-c2nnc(NC(=O)c3ccc(S(=O)(=O)N4CCOCC4)cc3)o2)c1`, the Potency is reported as active: 12.6 µM. In the case of `Cc1cn2c(-c3ccc(Cl)cc3)nnc2s1`, the Potency is reported as active: 10 µM. For `Cn1nc(-c2ccc(Cl)cc2)c2cc(C(=O)NCC3CCCO3)sc21` (stereo not drawn), the Potency was inconclusive [inhibitor, single point]. With `CCOC(=O)c1[nH]c(C)c(C(=O)OCC(=O)N(Cc2ccccc2)C(C)C)c1C` the Potency was inconclusive [inhibitor, single point]. In the case of `CSc1nnc(-c2ccc(NC(N)=S)cc2)o1`, the “activity change, negative = inhibition” value is reported as inactive: -17.2%. With `Cc1cccc(S(=O)C(c2ccccc2)c2ccccc2)c1` (stereo not drawn) the “activity change, negative = inhibition” value was inactive: -20.5%. With `Cc1ccc(-n2sc3ccccc3c2=O)cc1S(=O)(=O)N1CCCCC1` the Potency was inconclusive [inhibitor, full curve, poor fit]. In the case of `CCS(=O)(=O)Nc1ccc(C2=NN(C(=O)c3ccco3)C(c3cccc(F)c3)C2)cc1` (stereo not drawn), the Potency is reported as inconclusive [inhibitor, single point]. With `CCCCc1nc(Cl)c(CO)n1Cc1ccc(-c2ccccc2-c2nn[nH]n2)cc1` the Potency was active: 0.562 µM. In the case of `Cc1ccc(-c2nn3c(C)nnc3c3ccccc23)cc1S(=O)(=O)NCCO`, the Potency is reported as inconclusive [inhibitor, single point]. In the case of `CCOC(=O)NC(=S)Nc1ccc(C(C)(C)C)cc1Br`, the Potency is reported as inconclusive [inhibitor, partial curve]. In the case of `CCc1cc2cc(C)ccc2nc1SCC(=O)NNC(=O)c1ccco1`, the Potency is reported as inconclusive [inhibitor, single point]. With `COc1ccc(CCN(C)C(=O)c2cc(S(=O)(=O)N3CCCCC3)ccc2Cl)cc1OC` the Potency was inconclusive [inhibitor, single point].
